# According to the supplement of paper PMC3334620:
# Over roughly 33,000 sequences, “E-score (-0.5 to 0.5)” has its median near -0.043; the highest 2% begin near 0.37. The list shows a part of the results.
# Molecular target: T1, Upc2 (UniProt Q12151)
# T1 sequence: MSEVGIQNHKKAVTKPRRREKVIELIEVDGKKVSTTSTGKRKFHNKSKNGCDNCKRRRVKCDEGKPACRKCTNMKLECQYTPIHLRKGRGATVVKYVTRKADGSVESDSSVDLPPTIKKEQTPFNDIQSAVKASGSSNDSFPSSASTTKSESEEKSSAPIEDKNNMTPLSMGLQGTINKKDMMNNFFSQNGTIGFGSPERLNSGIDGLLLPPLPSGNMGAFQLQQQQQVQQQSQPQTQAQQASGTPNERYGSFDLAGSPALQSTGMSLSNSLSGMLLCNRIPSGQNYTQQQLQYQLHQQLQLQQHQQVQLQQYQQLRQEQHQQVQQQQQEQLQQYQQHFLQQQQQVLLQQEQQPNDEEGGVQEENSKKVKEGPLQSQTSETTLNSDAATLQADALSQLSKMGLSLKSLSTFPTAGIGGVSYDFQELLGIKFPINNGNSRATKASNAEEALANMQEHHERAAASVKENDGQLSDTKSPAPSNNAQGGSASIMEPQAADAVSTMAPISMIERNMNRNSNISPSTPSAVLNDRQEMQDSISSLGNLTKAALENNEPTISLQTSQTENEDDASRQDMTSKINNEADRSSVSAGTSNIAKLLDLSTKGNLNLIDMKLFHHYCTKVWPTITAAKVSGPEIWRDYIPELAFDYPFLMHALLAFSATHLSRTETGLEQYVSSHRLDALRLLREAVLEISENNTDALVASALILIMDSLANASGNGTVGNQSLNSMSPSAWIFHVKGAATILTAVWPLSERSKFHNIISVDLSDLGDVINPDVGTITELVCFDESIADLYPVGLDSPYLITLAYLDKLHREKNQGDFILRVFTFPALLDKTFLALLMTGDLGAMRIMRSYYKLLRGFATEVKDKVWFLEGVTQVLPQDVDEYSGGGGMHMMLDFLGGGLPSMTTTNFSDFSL
# Experiment: PBM E-score (8-mer binding enrichment) (E-score (-0.5 to 0.5)); higher = stronger / more preferred TF binding; most listed sequences are background and not binding sites
# Settings: protein concentration: 200 nM; construct: GST-full length
# Procedure, shortened: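 PURExpress in vitro transcription/translation supplied GST-tagged yeast transcription factors, either full-length or DNA-binding domain. Applied at about 100-200 nM to universal all-10-mer Agilent arrays double-stranded by primer extension, the bound protein was detected with fluorescent anti-GST. E-scores, modified Wilcoxon-Mann-Whitney statistics, were given by the Universal PBM Analysis Suite to ungapped eight-base words pooled with their reverse complements after masliner normalisation.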
row,Sequence,PBM E-score
1,GGCAACCA,-0.136
2,CCACCGCC,0.0047
3,ATTTGGCA,0.0539
4,GAGACTCA,-0.0394
5,CCATTGCA,-0.15
6,CCGTAGCC,0.0482
7,ACTTACTG,-0.00843
8,CAATTGAC,-0.0549
9,CTCGAACA,-0.00626
10,ACCGACCG,0.13
11,AGTTCTAC,-0.0317
12,CAGCTAAG,-0.332
13,CTGAAGTA,-0.122
14,ACAACGTG,-0.254
15,GGCTAGAC,-0.239
16,CGGCAACG,0.215
17,CTGCTTAA,-0.241
18,CCAGTTAG,-0.237
19,CTGCCCAG,-0.192
20,CTGCAAAG,-0.125
21,GGGGAGCA,-0.175
22,AACCGGAG,-0.193
23,GCCGCCAC,-0.279
24,CGGTAATC,0.0965
25,CTATCCTA,-0.129

row,Sequence,PBM E-score
1,ATGGTTAG,-0.2
2,CTCCACAC,-0.218
3,GCAAATCC,0.0252
4,AGCATCCA,-0.303
5,AAGAGATC,0.056
6,CATCTACG,0.121
7,AGCCCCAC,-0.0315
8,AAACTCGC,0.151
9,CCACTTAA,-0.0897
10,ACAGTTGC,-0.151
11,ATTTACCA,-0.0887
12,CCGCTTCC,-0.0802
13,AGGTGCTC,-0.169
14,TACCTCGA,0.0842
15,CAGTAACG,0.146
16,TCCCATAA,-0.219
17,AACACAGT,-0.0112
18,GGGCTGGA,-0.155
19,CGTTCAAG,0.407
20,ACAGTGGC,-0.115
21,GCAGAGGA,-0.0662
22,AGGGAGTC,-0.257
23,AAGGTCGT,0.31
24,AAAGCCTC,-0.0101
25,GGATACCA,-0.0879

row,Sequence,PBM E-score
1,GATACCGA,-0.00382
2,GAGAGTAC,0.0133
3,CTACGGAA,0.0194
4,AACTTGAC,-0.0301
5,CCCTGCAC,-0.0527
6,GCATTAGA,-0.139
7,GCGCCGAC,-0.25
8,AGTGGAGC,-0.124
9,ATAAATCA,-0.0114
10,TATGCCAA,-0.0761
11,CCGGTGAA,0.0509
12,CGGAGCTA,0.0735
13,AGGTGGCA,-0.207
14,CCCTTCAC,-0.185
15,GGTTCGTA,0.445
16,CTGCCGTA,0.336
17,GCACCATA,-0.0407
18,CTTTTGTC,-0.0899
19,TATCACAA,0.00921
20,GGTCGAAA,-0.1
21,GACCCTAC,-0.202
22,AGGGCCTC,-0.225
23,CGCGGTAA,0.168
24,AAGGCTGT,-0.146
25,GGTACTCA,-0.0959

row,Sequence,PBM E-score
1,ATAGCGAT,-0.0733
2,TAGAGCAA,-0.196
3,ATTCGAAG,0.134
4,AGCTAAAA,0.0318
5,ATGGCATG,0.209
6,CATTTTAG,0.0741
7,CGCTCCAC,0.0566
8,ACAGCCTC,0.00427
9,TCTTTACA,-0.04
10,AATGGTGT,-0.0602
11,ATATTTCC,-0.168
12,CCTGTCCC,0.0617
13,TATGCCGA,0.12
14,TGATCGAA,0.0649
15,GTCGGCGA,-0.0348
16,CAGCTCAG,-0.184
17,AGGGCGGA,-0.225
18,ACCAAGTG,-0.196
19,AGGGACTC,0.0301
20,CGTGTCCA,-0.194
21,AGAACCTG,-0.0415
22,ATGTCGTA,0.45
23,GATTAAAC,0.29
24,TAACGATA,0.387
25,AAGTTCGA,0.042

row,Sequence,PBM E-score
1,ATGCCTGC,-0.122
2,CTACGTAA,0.191
3,ATGGAGGC,-0.106
4,CATACAGA,-0.079
5,TATGGCAA,-0.037
6,CCTATCTC,-0.0763
7,CTGGAGCA,-0.342
8,GACGGCTC,-0.105
9,AAATACCC,-0.0819
10,AAGCTTGT,-0.0904
11,GCCGTCAA,-0.0972
12,CGAGCTTA,0.0276
13,CCTGATCC,-0.0689
14,AGCGACAA,0.143
15,AAGGTTTG,0.0347
16,CTTCTGCC,0.019
17,GTTTGGCA,0.21
18,GCTCGGCC,-0.164
19,GCAAAGCA,-0.0565
20,CTATCGAC,-0.0386
21,ACAGTACT,0.0578
22,CTCCCGTC,0.141
23,AGGGCTCA,-0.278
24,AATCGGGA,-0.12
25,ACAAATTC,-0.0428

row,Sequence,PBM E-score
1,CAATCGGC,-0.289
2,CCAAGCTC,0.0545
3,CACAATAA,0.081
4,CAGTATTC,0.162
5,GCCAAACA,-0.0676
6,TGTGCCAA,-0.0795
7,CCTGACAG,-0.256
8,GCCGCACC,-0.0621
9,CTGTACGC,0.375
10,GCCGAAAA,0.0611
11,AGTCAACT,-0.068
12,CTAGTGCA,0.00311
13,CCAGCAGA,-0.328
14,CTGCAAGC,-0.188
15,CATCGGAG,-0.244
16,CTGATCAA,-0.25
17,AATCTAGG,-0.0686
18,ACAGTGTG,-0.0237
19,AGCGTGTA,0.151
20,CCAAAAGG,-0.318
21,GTTGATCA,-0.0283
22,GAATAGAC,-0.15
23,GTGGGTGA,-0.117
24,ACTGATGA,-0.0579
25,GAAACCGA,0.117

row,Sequence,PBM E-score
1,CCTCAATC,-0.0762
2,ACATAATA,0.0823
3,CACGGGGG,-0.0826
4,TGACCTCA,-0.173
5,CTTGGCAA,-0.0704
6,CAATGCTG,-0.181
7,GGAGTACA,-0.103
8,CAAAAGCG,-0.13
9,GGAATTCA,-0.0796
10,ACAAAACT,-0.0618
11,CGTCGTAC,0.474
12,ACTGGAGC,-0.244
13,GGCACGAA,-0.163
14,CAGATCTG,-0.248
15,AATTAAGT,-0.0624
16,CGACAAAC,0.172
17,AATTCAGA,-0.0136
18,AGGGCTCC,-0.277
19,GGGACATA,-0.135
20,CCTTGTCG,-0.0495
21,ATCTCATG,-0.133
22,AATGGAAC,0.132
23,AAGAATAG,0.0807
24,ACCAGAGC,-0.137
25,AACTCAAG,-0.153

row,Sequence,PBM E-score
1,AGTTGGTA,0.0112
2,ACTTGGCG,-0.0651
3,GCGACCCC,-0.0914
4,CGAAAGCG,0.185
5,ACTTGGAA,-0.0616
6,ATCTGGCA,0.034
7,CCAGACGA,0.177
8,ACGGCAAG,0.00345
9,AATGCCAC,-0.133
10,AAGGAGCT,-0.0416
11,CTACATGC,0.074
12,ACATCGGC,0.0449
13,GCATTCAC,-0.0368
14,ACAATAGT,-0.184
15,AAGAATAA,0.00879
16,AACAGACG,0.122
17,AAACTTCG,0.122
18,GCAAAGAC,-0.148
19,CCTGAGAG,-0.284
20,AAGCCACC,-0.207
21,ACCCGTTC,0.293
22,AATTGGCT,-0.129
23,CGTTTAAC,0.473
24,ACTAAACT,-0.0201
25,CGAGCTAG,0.108

row,Sequence,PBM E-score
1,ATGACAAA,-0.0651
2,ATCTAACC,0.0817
3,AGAGGACA,-0.245
4,CGAAGGCG,0.0587
5,GTGTCATA,0.0297
6,ATCGCGAC,0.11
7,AGTTCGCA,0.136
8,AACCGCAT,0.0802
9,CCCAACGG,-0.233
10,AAAATTGA,-0.0491
11,AGTTTGCC,-0.228
12,CCCTACCA,-0.0947
13,CTACTGTA,0.122
14,TGGTCTAA,-0.0914
15,GACAGGCC,-0.19
16,GCGGCAGA,-0.18
17,CGAAAGGC,0.0523
18,GATTGTGA,-0.112
19,GACAGCTC,-0.00274
